In PubChem BioAssay AID1347073 (National Center for Advancing Translational Sciences (NCATS), 2019):
Screen size: about 45,000 compounds; about 200 (0.44%) were called active. Inconclusive results (about 7%) are left out. The call rests on the fitted dose curve; in most records, active means well fitted activation curve with a large enough effect; inconclusive means small, poorly fitted or top-dose-only effect; inactive means no such curve, though single readings can be large or run the other way. The list shows a part of the results.

Assay: qHTS of TDP-43 Inhibitors: NCGC Sytravon Library Screen; further: 0% is about no effect; nearly all actives have a fitted effect of over 55% in size
Details: yeast TDP-43 toxicity rescue, BacTiter-Glo growth, 24 h; series mostly up to 46.1 µM; growth rescue (activation): at the top concentration
Outline: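 TDP-43-expressing yeast, pregrown in raffinose, seeded at OD600 0.02 in galactose medium with compound for 24 hr at 30 deg C. Growth read by BacTiter-Glo luminescence, so rescue of toxicity appears as activation.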

Row | Compound | growth rescue (activation)
1 | CCCS(=O)(=O)N1CCC(C(=O)NCc2cccnc2)CC1 | inactive: 17.7%
2 | Cc1ccc(/C=N/Nc2cc(C)nc(NCc3ccccc3)n2)cc1 | inactive: -0.107%
3 | COc1cc(OC)cc(C(=O)Nc2cccnc2)c1 | inactive: 5.2%
4 | Cc1cc(C(=O)NCc2ccc(F)cc2)c2ccccc2n1 | inactive: 6.79%
5 | C/C(=C\c1ccccc1)C(=O)NCCc1ccccc1 | inactive: 5.1%
6 | O=C(CNS(=O)(=O)c1ccccc1)Nc1ccc2c(c1)OCO2 | inactive: -5.26%
7 | COc1ccc2cc(C(c3nnnn3C3CCCC3)N3CCOCC3)c3nnnn3c2c1 (configuration not stated) | inactive: 2.04%
8 | CCOC(=O)C1(C)CCCN(C(=O)c2ccc3c(c2)OCO3)C1 (configuration not stated) | inactive: 11.1%
9 | CC(C)(C)NNC(=S)Nc1ccc(S(=O)(=O)N2CCOCC2)cc1 | inactive: 14.6%
10 | CSc1ccccc1C(=O)NC1CCCc2ccccc21 (configuration not stated) | inactive: 11.8%
11 | CN(C(=O)COc1cc(C(F)(F)F)nn1C)c1ccccc1 | inactive: 12.8%
12 | CCOc1cc(/C=N\NC(=O)c2ccc(C)nc2)ccc1OC(=O)c1ccc(F)cc1 | inactive: 1.02%
13 | CC(=O)C1=C(C)OC(N)=C(C#N)C1c1cccnc1 (configuration not stated) | inactive: 15.1%
14 | CNC(=O)c1c(Cl)cnn1-c1ccccc1 | inactive: 2.09%
15 | COc1cc(NS(=O)(=O)c2ccc(Cl)cc2)c(C(=O)O)cc1OC | inactive: 16%
16 | O=C(OCc1cc(=O)n2ccsc2n1)c1ccccc1O | inactive: 26.1%
17 | COc1cc(-c2cc(C(=O)OCC(=O)NC3CC3)c3ccccc3n2)cc(OC)c1OC | inactive: 4.17%
18 | N=C1C(c2ccccc2)=C(O)CN1c1cccc(S(=O)(=O)Nc2cccc(C(F)(F)F)c2)c1 | inactive: 10.6%
19 | CCOc1c(/C=C(\C#N)C(N)=O)c2ccccc2n1CC | inactive: 14.2%
20 | COC(=O)C1=C(C)Nc2nnnn2C1c1ccc(Cl)cc1Cl (configuration not stated) | inactive: -8.7%
21 | COC(=O)c1ccc(CSc2nnc(-c3ccncc3)o2)o1 | inactive: 0.814%
22 | COc1cccc(/C=C/C(=O)NCc2ccc(S(N)(=O)=O)cc2)c1 | inactive: 20.6%
23 | Cc1nnn(C23CC4CC(CC(CC(=O)Nc5cccc(F)c5)(C4)C2)C3)n1 | inactive: 20.9%
24 | Cc1cc(C)c(Cn2c(=O)n(CCCCCC(=O)NCc3ccc4c(c3)OCO4)c(=O)c3sccc32)c(C)c1 | inactive: 5.57%
25 | COc1ccccc1CNC(=O)c1sccc1-c1ccccc1 | inactive: 40.6%
26 | CC(=O)c1ccc(NC(=O)C2CCN(S(=O)(=O)c3cccc4nonc34)CC2)cc1 | inactive: 8.64%

Row | Compound | growth rescue (activation)
27 | CN(C)CCNc1c(N)c(=O)oc2ccccc12 | inactive: -2.79%
28 | CCC(Oc1ccccc1)C(=O)N(CC)CC(=O)NCc1ccc(F)cc1 (configuration not stated) | inactive: 16.5%
29 | O=S(=O)(c1cccc(C(F)(F)F)c1)N(CCCN1CCOCC1)Cc1cccs1 | inactive: -5.75%
30 | Cc1ccc(C(=O)OCC(=O)N2CC(C)OC(C)C2)cc1 (configuration not stated) | inactive: 6.45%
31 | COc1cc(CN2CCNC(=O)C2CC(=O)N2CCCCO2)cc(OC)c1 (configuration not stated) | inactive: 10.1%
32 | COc1ccccc1CNC(=O)C(CCSC)NC(=O)c1cccc(S(=O)(=O)N2CCOCC2)c1 (configuration not stated) | inactive: 13.2%
33 | COCCNC(=O)Cn1nc(-c2ccc(Cl)cc2)c2ccccc2c1=O | inactive: -1.89%
34 | CCOC(=O)C1=C(C)NC(C)=C(C(=O)OCC)C1C(=O)OCC(=O)N1CCOCC1 | inactive: 2.82%
35 | COc1ccccc1NC(=O)Cc1nnc(SCC(=O)c2ccc(F)cc2)n1C | inactive: -3.57%
36 | CC1CC(=O)Nc2ccccc2N1C(=O)CSc1nnnn1C (configuration not stated) | inactive: 1.02%
37 | Cc1nnc(SCC2=C(C(=O)O)N3C(=O)C(NC(=O)Cn4ncc(Cl)c4C)C3SC2)s1 (configuration not stated) | inactive: 2.48%
38 | O=C(CN(C(=O)Cn1nnc(-c2ccc(F)cc2)n1)c1ccc(F)cc1)NC1CCCC1 | inactive: -5.54%
39 | O=C(NCc1ccccc1F)c1ccc(S(=O)(=O)Nc2cccc(C(F)(F)F)c2)cc1 | inactive: -11.6%
40 | Cc1ccc(S(=O)(=O)N2CC=C(c3c(C)n(C)c4ccccc34)CC2)cc1 | inactive: -9.89%
41 | O=C(COC(=O)C(Cc1ccccc1)NC(=O)c1ccccc1)c1ccccc1 (configuration not stated) | inactive: -1.83%
42 | O=[N+]([O-])c1ccc(S(=O)(=O)CC(CN2CCCCC2)N2CCCCC2)cc1 (configuration not stated) | inactive: 5.67%
43 | Cc1c(Cl)cnn1CC(=O)NC1C(=O)N2C(C(=O)O)=C(CSc3nnnn3C)CSC12 (configuration not stated) | inactive: -2.4%
44 | COc1ccc(NC(=O)CN2CCC(NC(=O)c3ccco3)CC2)c([N+](=O)[O-])c1 | inactive: 5.69%
45 | O=C(NCCCN1CCOCC1)c1ccc([N+](=O)[O-])cc1[N+](=O)[O-] | inactive: -1.41%
46 | COC(=O)c1ccc(NC(=O)CN2CCN(CCO)CC2)cc1 | inactive: 7.96%
47 | Cc1cc(C)nc(Sc2nc(Nc3ccccc3)nc(Sc3nc(C)cc(C)n3)n2)n1 | inactive: 14.6%
48 | Cc1ccccc1NC(=O)c1ccc(S(=O)(=O)C(F)F)cc1 | inactive: 17%
49 | CCOC(=O)C(=CNc1cc(C)ccn1)C(=O)OCC | inactive: 21.2%
50 | Cc1cccc(Nc2nnc(SCC(=O)NC(=O)Nc3ccc4c(c3)OCCO4)s2)c1 | inactive: 8.5%
51 | Cc1cc(C)c(S(=O)(=O)N2CCN(S(=O)(=O)N3CCC(C)CC3)CC2)c(C)c1 | inactive: -1.94%
52 | COCCCn1c(-c2cccc(Cl)c2)nc2c1c(=O)[nH]c(=O)n2Cc1ccccc1 | inactive: -0.355%
